# Results reported in the supplement of paper PMC11417369.
# Some of the results follow.
# Tested on: PfHDP1 homeodomain (GST-tagged)
# Test: gcPBM binding intensity (ln(normalized median fluorescence intensity)); higher = stronger DNA binding
# Summary of the method: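 In this array assay, P. falciparum DNA-binding domains with a GST tag, expressed in E. coli, were applied for 1 h to primer-extended double-stranded 36-bp intergenic genomic probes and negative controls on an Agilent 4 × 180k array. Bound protein was visualised with Alexa488 anti-GST antibody at 488 nm. Binding intensity is the highest Masliner-normalised natural-log median intensity across replicate spots of either probe orientation.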
row,Sequence,gcPBM binding intensity (ln)
1,TCTCATAGTAGACACACACACACACGCACATATATA [CACACA_site6916],7.29
2,TTCTTATAAATATACACACACAAAATATCTACAATG [CACACA_site6487],6.75
3,TGTGTAAGATCTTGGATGATGATAAGAATCTACTAG [CACACA_negctrl_site1167],6.16
4,CCTTAAAATAAGATATGTACGCAAAGGAAAACAAAG [XGTACX_site6057],7.09
5,TTATAAGATTTATGTACACACATATACTCACCTCTA [CACACA_site729],6.55
6,ACAAATACAAAAAAAGGTACACACATAATATATTTA [XGTACX_site5515],6.82
7,AATATAAATACTCCTACACACATATATATATATATA [CACACA_site3010],9.34
8,GACACAAAAAAATAATAATAATAATAATAATAAATA [XGTACX_negctrl_site145],6.27
9,AAATATTTTATACTTGCACACAAAATATATTAAAAT [CACACA_site8606],8.97
10,TTTGTTTTTAATTTCGCACACACCTTGTGGAAAAAA [CACACA_site577],7.02
11,AAAGGATTTATACTAGTGCAAAAATATAAAAATATA,9.12
12,AATAATAAAGTGAACACACACATATAACATCTATAT [CACACA_site7868],6.51
13,AATGAATGTAAGAAAATACACACTAGTATAGTAACA [CACACA_site1955],6.63
14,TTGGAAAAAGTGAAATGTACATATATATTTATTATT [XGTACX_site6946],6.49
15,GAAGTTTTTTAAAGATGTACTTTTTAAAAATAATCT [XGTACX_site263],6.13
16,TTTGGCTAGTTAGGCCGTACATGTAAATAATATATA [XGTACX_site1138],6.99
17,TCCATATATGCCTTATGTACATATACCAAATTAACC [XGTACX_site6513],7.11
18,TAGCCATTTTTATATTGTACTTATATAATCACATTT [XGTACX_site4407],6.6
19,ATAAAAAAAAATAACACACAGACATAAGAATAAATA [CACACA_site4162],6.88
20,ATATAAGAAAAGCACACACACACAAAAAAAAAAAAA [CACACA_site2827],6.35
21,GACCACTTTAGGATTTGTACACATATTATATATGCA [XGTACX_site6579],6.97
22,TACACAAACAAACACACACACACACCCCCACAAAAA [CACACA_site2428],7.92

row,Sequence,gcPBM binding intensity (ln)
1,ATTAAAAAAAATATATATGTATAAAACAAGCAAAAT [XGTACX_negctrl_site474],6.99
2,TTTTGATAGAAGTGTTCTAGGAATTCAACTGTAATA [GTGCAC_negctrl_site585],6.17
3,TATAATAATAAAAACACACACGTTGATTGTATTAGC [CACACA_site5336],6.48
4,TATAATGATAATAATAGTACACATTAGAACGGGAGG [XGTACX_site2563],6.84
5,ATAATATTATTTAAAAGTACTAACAAAAGAATATTA [XGTACX_site4989],6.41
6,CCTATTATTTCTAAAACACACAAAAATATAAAAGAA [CACACA_site2708],6.98
7,TCTTTTTTTTATTATATCATTGAAATGTTAAAACGA [XGTACX_negctrl_site473],6.42
8,ATTAAAAAAATTGGCACACATAAAAATATATAAAAA [CACACA_site2748],6.65
9,AACAGATATGAATAGAAAAAAAAAAATGGCCCATAT [TGCATGCA_negctrl_site443],5.92
10,GTTTTTAATGTTTTGACATGCAATATTAAAAATAAT [TGCATGCA_site174],6.57
11,TGAAAAAAAAAATACACACACGAGTTGTTATACATA [CACACA_site7486],6.07
12,ATATACATATATATATGTACTTATTTATTTATTTAT [XGTACX_site2532],6.55
13,AAAAAGTGACTCCTTACACACTTTACATAATTTAGG [CACACA_site8176],6.32
14,CATACATACATACATACATGCATACATACATACATA [TGCATGCA_site218],7.46
15,TTTTTTTTCATTTTATGTACACATAATTTAATATAT [XGTACX_site5768],6.91
16,ATATATATATATATATGTACATATGTTTGTTTCCGC [XGTACX_site5167],9.16
17,GCAATTTTTTTTAAGAGTACTAATATATTATAGTGG [XGTACX_site7316],6.37
18,TTTTTTTAATAGTGTGCACACAATATACAGAAAAAA [CACACA_site8399],11
19,TATATATATGAACAATGTACGTATAATATTTTTATT [XGTACX_site7561],6.26
20,GATCTATACTATAATACACACATTTGATGAATGTAA [CACACA_site6163],6.75
21,ATATATATATATATATGTACACATAAAAAGAAAGAA [XGTACX_site1603],9.25
22,AACATTATATATTGCAGTACTCCCATATGTTGATAA [XGTACX_site3119],7.01
